According to the supplement of paper PMC3334620:
Over roughly 33,000 sequences, “E-score (-0.5 to 0.5)” has its median near -0.012; the highest 2% begin near 0.29. This is one part of the list.

Molecular target: T1, Ybr033w (UniProt P38073)
T1 sequence: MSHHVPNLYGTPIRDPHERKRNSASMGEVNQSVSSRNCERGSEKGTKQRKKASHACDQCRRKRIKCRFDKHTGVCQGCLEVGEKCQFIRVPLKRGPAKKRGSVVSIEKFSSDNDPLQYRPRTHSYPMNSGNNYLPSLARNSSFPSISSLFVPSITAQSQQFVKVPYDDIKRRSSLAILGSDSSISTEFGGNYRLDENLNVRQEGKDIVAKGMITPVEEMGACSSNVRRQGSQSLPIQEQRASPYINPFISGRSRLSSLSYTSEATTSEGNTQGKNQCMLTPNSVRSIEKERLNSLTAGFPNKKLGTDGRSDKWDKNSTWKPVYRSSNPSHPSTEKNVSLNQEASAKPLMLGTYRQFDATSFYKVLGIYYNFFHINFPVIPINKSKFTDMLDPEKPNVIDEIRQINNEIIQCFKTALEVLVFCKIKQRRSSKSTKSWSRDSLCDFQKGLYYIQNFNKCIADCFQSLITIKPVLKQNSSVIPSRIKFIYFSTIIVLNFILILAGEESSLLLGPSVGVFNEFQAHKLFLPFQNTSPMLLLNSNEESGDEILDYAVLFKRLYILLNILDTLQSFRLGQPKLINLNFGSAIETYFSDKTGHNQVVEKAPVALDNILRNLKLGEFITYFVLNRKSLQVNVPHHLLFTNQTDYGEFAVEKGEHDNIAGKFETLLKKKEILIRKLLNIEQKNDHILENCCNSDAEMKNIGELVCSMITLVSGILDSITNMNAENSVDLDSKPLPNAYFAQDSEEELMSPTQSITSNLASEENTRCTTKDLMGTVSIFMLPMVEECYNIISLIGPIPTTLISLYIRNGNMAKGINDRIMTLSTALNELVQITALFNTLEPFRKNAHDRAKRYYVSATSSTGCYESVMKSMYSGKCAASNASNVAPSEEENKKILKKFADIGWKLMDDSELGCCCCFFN
Assay: PBM E-score (8-mer binding enrichment) (E-score (-0.5 to 0.5)); higher = stronger / more preferred TF binding; most listed sequences are background and not binding sites
Settings: protein concentration: 200 nM; construct: GST-full length
Protocol: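 Universal 'all 10-mer' protein binding microarrays (Agilent AMADID 015681) probed with GST-tagged S. cerevisiae TFs (full-length or DBD) made by in vitro transcription/translation (PURExpress), about 100-200 nM. Bound TF was detected with fluorescent anti-GST. Each ungapped 8-mer (which stands for itself and its reverse complement) is scored by the PBM enrichment score (E-score), a modified Wilcoxon-Mann-Whitney statistic from -0.5 to +0.5, computed with the Universal PBM Analysis Suite. Scale: above 0.35 generally sequence-specific binding.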

Row | Sequence | PBM E-score
1 | GAGATATA | 0.142
2 | CTATCGGC | -0.156
3 | CGTTGTGC | -0.162
4 | AAGGCGAC | -0.165
5 | ACGGCAGT | -0.108
6 | CACACTCG | 0.173
7 | CAGCTGAC | -0.0706
8 | CGCGGTTC | -0.101
9 | TAAGCGTA | -0.113
10 | AGGAGGCG | -0.283
11 | GAGGCACA | 0.0123
12 | CCTCTTCC | -0.19
13 | ACTTGTAC | 0.0434
14 | ATGGTAGC | -0.104
15 | GACGAACC | -0.134
16 | GCCCAGTA | -0.0931
17 | TACCCTCA | -0.0963
18 | AGGGGCTC | -0.317
19 | CCAGCGCA | -0.086
20 | GTTACAAA | 0.272
21 | AAGGTACC | -0.202
22 | AAAATCTT | 0.255
23 | AGAGGGAG | -0.227
24 | CTTAGACC | -0.0729
25 | ACAGTGAG | 0.00771

Row | Sequence | PBM E-score
26 | ACCGGCAC | -0.179
27 | GCTCACTA | -0.0185
28 | CCTTCCAC | -0.0656
29 | AATTACCT | 0.187
30 | GGGCATTA | -0.152
31 | CTTAGCTC | -0.12
32 | CAGGAAGG | -0.242
33 | CTTCCATA | 0.00603
34 | CAGGTAGA | -0.138
35 | AGATGATG | 0.0362
36 | ACCCCAGT | -0.0571
37 | GTCGTTTA | 0.0819
38 | GGGGGGCA | -0.441
39 | GGCCGTTA | 0.0064
40 | ACGGGCTG | -0.235
41 | AGTTAACG | 0.156
42 | GGCTAGCC | -0.419
43 | TGACCCCA | -0.185
44 | CAGTCTAA | 0.0811
45 | TCGGTAGA | 0.0295
46 | GCCCCGAA | -0.0306
47 | CAGCTCTA | -0.123
48 | CTATGATA | 0.113
49 | AAGTTCCG | 0.186
50 | GTGCAGGA | -0.212

Row | Sequence | PBM E-score
51 | AAAAATCG | 0.171
52 | AAGCTCCT | -0.239
53 | AAACGGGA | 0.181
54 | ACTTCTTA | 0.0721
55 | TACTGAGA | -0.0532
56 | CAGCGCGA | -0.045
57 | AGCGATCA | -0.0363
58 | GGAGTAAC | 0.0441
59 | AGCATAGC | -0.189
60 | GGTCTCTA | -0.00183
61 | CGCTACCG | -0.117
62 | GGTTGGTA | 0.214
63 | GCATCCCA | -0.256
64 | AAAGCAGG | 0.052
65 | TGCCGGCA | -0.0771
66 | CATGGGGG | -0.227
67 | ACAACCTC | -0.129
68 | ACCCGTAG | -0.324
69 | CGCTTATC | -0.00322
70 | ATCGCAAG | 0.0744
71 | CAGGGGCG | -0.319
72 | CATTGCGG | -0.124
73 | CTGTGTGA | 0.00098
74 | AACGACCT | -0.0289
75 | GCGTGTGA | -0.0632

Row | Sequence | PBM E-score
76 | TTCATGAA | 0.166
77 | CTATATAG | 0.0604
78 | AGCCTGCA | 0.0148
79 | ATTGCCGA | -0.0189
80 | AGAATGGA | 0.0873
81 | CTTCCCCA | -0.233
82 | CCAATTTA | 0.203
83 | CCAGTAAC | 0.0247
84 | AACGCCTC | -0.181
85 | CTAAAGTA | -0.0425
86 | GGTGTACA | -0.0339
87 | ACTGTCTC | 0.0553
88 | TCTGGACA | -0.237
89 | ACAGAGCG | -0.0319
90 | ATTGTGCG | -0.0415
91 | ACTTAAGT | 0.177
92 | AGCTTCGA | 0.0258
93 | AGGATTCG | -0.0751
94 | CATGAGTA | -0.097
95 | CCCGTCTA | -0.00318
96 | CATTACCG | 0.00401
97 | CGATTAAC | 0.103
98 | GAGGGGAC | -0.243
99 | ACACATCA | 0.0197
100 | ACAGACCG | -0.105

Row | Sequence | PBM E-score
101 | AATCATGT | 0.0978
102 | GGTCCTCA | 0.0869
103 | AGGTGACA | 0.0143
104 | ACATAACA | 0.127
105 | AATGGCAG | -0.0191
106 | AGTCACCA | -0.164
107 | ATATTTGA | 0.213
108 | ATGCCTTA | -0.0248
109 | GAGTTTGC | -0.00724
110 | CACTTAAG | 0.144
111 | CTAAGCTC | -0.191
112 | ACGGCCCT | -0.225
113 | ATGGTGCG | -0.00722
114 | GCCCATGA | -0.141
115 | GCACGCCC | -0.155
116 | GCTAAATA | 0.222
117 | CTATCTTA | -0.026
118 | CAAATGTA | 0.216
119 | CCGGGTGC | -0.181
120 | CTCAACAG | 0.0082
121 | AGGTTACT | -0.034
122 | CAGCGGAA | 0.0404
123 | CAATATCA | 0.171
124 | GTCAGAAC | -0.0207
125 | CCGACCCG | -0.197

Row | Sequence | PBM E-score
126 | GACGATTA | -0.0748
127 | GGAGTTAC | 0.202
128 | AATCACAC | 0.112
129 | GAAGACGC | -0.164
130 | CACCCCGG | -0.21
131 | TAGGCGCA | -0.108
132 | CCATGGCA | -0.173
133 | CACAATCG | 0.0764
134 | ACCCGGGA | 0.078
135 | GCGGAGTA | 0.0577
136 | CCGCTAAC | -0.0857
137 | GAAACAGC | -0.145
138 | AATGGGCC | -0.259
139 | ATCACAGC | 0.0343
140 | CCCATCAC | -0.253
141 | CGAGAAGC | -0.153
142 | ACCGGTCG | -0.224
143 | CTGTCATA | 0.0448
144 | CCCTGATC | -0.244
145 | ACTCCGCA | 0.0152
146 | ACAGAACA | 0.253
147 | CCTGCTAC | -0.116
148 | AGGTCTGA | 0.0768
149 | AGCAGTGG | 0.0536
150 | GACGGAAC | 0.0393

Row | Sequence | PBM E-score
151 | TTATCCAA | 0.258
152 | AACGCCGA | -0.0724
153 | CTGCGACC | -0.0743
154 | GGACAATA | 0.202
155 | ATAGCGGA | 0.0982
156 | CTAGCTTA | 0.107
157 | AGCGGAAC | 0.14
158 | GACAGCGC | -0.0316
159 | CCTTGCCG | -0.227
160 | ACTCGAGG | -0.117
161 | AGAAAAAT | 0.269
162 | AAGAGGCA | -0.0229
163 | GTTGTATA | 0.0745
164 | AAGTAGCT | 0.0343
165 | AGAACAAG | 0.212
166 | AATGATCC | 0.421
167 | AGTTAGAG | -0.0838
168 | CTGTTTCC | 0.0114
169 | CACGTGCC | -0.243
170 | CCAAGCAA | 0.106
171 | GTTAGTGA | 0.107
172 | AGAATTGA | 0.14
